# The supplement of paper PMC10037445
# The full ranking holds about 2,900 compounds; the median of “NF-kB SEAP reporter activity, fold change vs agonist alone” is about 0.99, and the highest 2% start at about 2.6. The list shows a part of the results.
# Experiments:
# RAW-Dual [1] = assay: NF-kB SEAP reporter activity, fold change vs agonist alone; cytotoxicity flag (confluency mask): not cytotoxic; higher = enhanced NF-kB activity
# Summary of the method: (§1)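 Library stock was pin-tooled at 50 nL into 384-well plates of RAW-Dual macrophages (50,000 cells/well, DMEM), followed 1 h later by a PRR agonist, and the cells were kept at 37 °C, 5% CO2. Supernatant collected after 20 hours was read for IRF by QuantiLuc luminescence and for NF-κB by QuantiBlue absorbance at 620 nm. Reporter activity is fold change over agonist-alone wells, and a well counted as cytotoxic when its IncuCyte confluency was below 70% of agonist controls in both mask sets.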
# RAW-Dual [2] = assay: NF-kB SEAP reporter activity, fold change vs agonist alone; higher = enhanced NF-kB activity
# Summary of the method: as §1
# RAW-Dual [3] = assay: NF-kB SEAP reporter activity, fold change vs agonist alone; cytotoxicity flag (confluency mask): cytotoxic (confluency <70% of control); higher = enhanced NF-kB activity
# Summary of the method: as §1
# [4] = agonist: ODN 1826 (TLR9) 0.5 ug/mL
# [5] = agonist: Pam2CSK4 (TLR2/6) 0.1 ug/mL
# [6] = agonist: Pam3CSK4 (TLR2/1) 0.1 ug/mL
# [7] = library stock concentration (final ~1000-fold dilution): 10 mM, cytotoxicity flag (confluency mask): not cytotoxic, agonist: Imiquimod (TLR7) […]
# [8] = library stock concentration (final ~1000-fold dilution): 10 mM, cytotoxicity flag (confluency mask): not cytotoxic, agonist: MPLA (TLR4) […]
compound,measurement,setting,value
Cn1cc(CC(N)C(=O)O)c2ccccc21 (stereo not drawn) (library stock concentration (final ~1000-fold dilution): 2 mM),NF-kB SEAP reporter activity,RAW-Dual [1]; agonist: LPS (TLR4) 0.1 ug/mL,1.05
same,NF-kB SEAP reporter activity,RAW-Dual [1]; [4],1.22
same,NF-kB SEAP reporter activity,RAW-Dual [1]; [5],1.19
same,NF-kB SEAP reporter activity,RAW-Dual [1]; [6],1.05
Cc1ccccc1-c1cc(N2CCN(C)CC2)ncc1N(C)C(=O)C(C)(C)c1cc(C(F)(F)F)cc(C(F)(F)F)c1,NF-kB SEAP reporter activity,"RAW-Dual [2]; library stock concentration (final ~1000-fold dilution): 2 mM, cytotoxicity flag (confluency mask): not cytotoxic, agonist: MPLA (TLR4) […]",1.06
Cc1ccccc1-c1cc(N2CCN(C)CC2)ncc1N(C)C(=O)C(C)(C)c1cc(C(F)(F)F)cc(C(F)(F)F)c1 (library stock concentration (final ~1000-fold dilution): 2 mM),NF-kB SEAP reporter activity,RAW-Dual [1]; agonist: LPS (TLR4) 0.1 ug/mL,1.06
same,NF-kB SEAP reporter activity,RAW-Dual [1]; [4],0.951
same,NF-kB SEAP reporter activity,RAW-Dual [1]; [5],1.04
same,NF-kB SEAP reporter activity,RAW-Dual [1]; [6],1.03
O=C(OC1CN2CCC1CC2)N1CCc2ccccc2C1c1ccccc1 (stereo not drawn),NF-kB SEAP reporter activity,"RAW-Dual [2]; library stock concentration (final ~1000-fold dilution): 10 mM, cytotoxicity flag (confluency mask): cytotoxic (confluency <70% of control), agonist: MPLA (TLR4) […]",1.22
O=C(OC1CN2CCC1CC2)N1CCc2ccccc2C1c1ccccc1 (stereo not drawn) (library stock concentration (final ~1000-fold dilution): 10 mM),NF-kB SEAP reporter activity,RAW-Dual [3]; agonist: LPS (TLR4) 0.1 ug/mL,1.01
same,NF-kB SEAP reporter activity,RAW-Dual [3]; [4],0.565
same,NF-kB SEAP reporter activity,RAW-Dual [3]; [5],0.878
same,NF-kB SEAP reporter activity,RAW-Dual [3]; [6],0.943
Cc1c(NC(=O)c2cc(C(N)=O)nc3cc(F)ccc23)c(C(F)(F)F)nn1Cc1ccc(C#N)cc1 (library stock concentration (final ~1000-fold dilution): 10 mM),NF-kB SEAP reporter activity,RAW-Dual [1]; agonist: LPS (TLR4) 0.1 ug/mL,0.766
same,NF-kB SEAP reporter activity,RAW-Dual [1]; [4],0.559
same,NF-kB SEAP reporter activity,RAW-Dual [1]; [5],0.148
same,NF-kB SEAP reporter activity,RAW-Dual [1]; [6],0.33
Cc1c(NC(=O)c2cc(C(N)=O)nc3cc(F)ccc23)c(C(F)(F)F)nn1Cc1ccc(C#N)cc1,NF-kB SEAP reporter activity,RAW-Dual [2]; [7],0.491
same,NF-kB SEAP reporter activity,RAW-Dual [2]; [8],1.25
CN(C)CCC(c1ccccc1)c1ccccn1.O=C(O)/C=C\C(=O)O (stereo not drawn) (library stock concentration (final ~1000-fold dilution): 10 mM),NF-kB SEAP reporter activity,RAW-Dual [1]; agonist: LPS (TLR4) 0.1 ug/mL,1.02
same,NF-kB SEAP reporter activity,RAW-Dual [1]; [4],0.837
same,NF-kB SEAP reporter activity,RAW-Dual [1]; [5],1.08
same,NF-kB SEAP reporter activity,RAW-Dual [1]; [6],1.09
CN(C)CCC(c1ccccc1)c1ccccn1.O=C(O)/C=C\C(=O)O (stereo not drawn),NF-kB SEAP reporter activity,RAW-Dual [2]; [7],0.937
same,NF-kB SEAP reporter activity,RAW-Dual [2]; [8],1.06
Nc1nc(=O)n(C2CSC(CO)O2)cc1F (stereo not drawn) (library stock concentration (final ~1000-fold dilution): 10 mM),NF-kB SEAP reporter activity,RAW-Dual [1]; agonist: LPS (TLR4) 0.1 ug/mL,0.99
same,NF-kB SEAP reporter activity,RAW-Dual [1]; [4],1.1
same,NF-kB SEAP reporter activity,RAW-Dual [1]; [5],1.1
same,NF-kB SEAP reporter activity,RAW-Dual [1]; [6],1.13
Nc1nc(=O)n(C2CSC(CO)O2)cc1F (stereo not drawn),NF-kB SEAP reporter activity,RAW-Dual [2]; [7],0.983
same,NF-kB SEAP reporter activity,RAW-Dual [2]; [8],1.14
Cc1ccc(NS(=O)(=O)c2ccc3c(c2)C2C=CCC2C(c2ccc(C(=O)O)cc2)N3)cc1C (stereo not drawn) (library stock concentration (final ~1000-fold dilution): 10 mM),NF-kB SEAP reporter activity,RAW-Dual [1]; agonist: LPS (TLR4) 0.1 ug/mL,1.01
same,NF-kB SEAP reporter activity,RAW-Dual [1]; [4],0.883
same,NF-kB SEAP reporter activity,RAW-Dual [1]; [5],0.824
same,NF-kB SEAP reporter activity,RAW-Dual [1]; [6],1
Cc1ccc(NS(=O)(=O)c2ccc3c(c2)C2C=CCC2C(c2ccc(C(=O)O)cc2)N3)cc1C (stereo not drawn),NF-kB SEAP reporter activity,RAW-Dual [2]; [7],0.849
same,NF-kB SEAP reporter activity,RAW-Dual [2]; [8],0.997
